Measurements published in PMC4336329 (PLoS ONE, 2015).
The whole screen tested about 310,000 compounds, of which about 14,000 (4.5%) showed an effect of 50% or more. Effects have a minus sign here. The list shows a part of the results.

These compounds were tested against human ether-à-go-go-related gene (hERG) potassium channel (human, UniProt Q12809) (assay: primary screen, population patch clamp on CHO cells stably expressing hERG).
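Further: peak tail current of the secondary pulse compared with the same well before compound.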

Chain of human ether-à-go-go-related gene (hERG) potassium channel (Q12809 whole entry, looked up): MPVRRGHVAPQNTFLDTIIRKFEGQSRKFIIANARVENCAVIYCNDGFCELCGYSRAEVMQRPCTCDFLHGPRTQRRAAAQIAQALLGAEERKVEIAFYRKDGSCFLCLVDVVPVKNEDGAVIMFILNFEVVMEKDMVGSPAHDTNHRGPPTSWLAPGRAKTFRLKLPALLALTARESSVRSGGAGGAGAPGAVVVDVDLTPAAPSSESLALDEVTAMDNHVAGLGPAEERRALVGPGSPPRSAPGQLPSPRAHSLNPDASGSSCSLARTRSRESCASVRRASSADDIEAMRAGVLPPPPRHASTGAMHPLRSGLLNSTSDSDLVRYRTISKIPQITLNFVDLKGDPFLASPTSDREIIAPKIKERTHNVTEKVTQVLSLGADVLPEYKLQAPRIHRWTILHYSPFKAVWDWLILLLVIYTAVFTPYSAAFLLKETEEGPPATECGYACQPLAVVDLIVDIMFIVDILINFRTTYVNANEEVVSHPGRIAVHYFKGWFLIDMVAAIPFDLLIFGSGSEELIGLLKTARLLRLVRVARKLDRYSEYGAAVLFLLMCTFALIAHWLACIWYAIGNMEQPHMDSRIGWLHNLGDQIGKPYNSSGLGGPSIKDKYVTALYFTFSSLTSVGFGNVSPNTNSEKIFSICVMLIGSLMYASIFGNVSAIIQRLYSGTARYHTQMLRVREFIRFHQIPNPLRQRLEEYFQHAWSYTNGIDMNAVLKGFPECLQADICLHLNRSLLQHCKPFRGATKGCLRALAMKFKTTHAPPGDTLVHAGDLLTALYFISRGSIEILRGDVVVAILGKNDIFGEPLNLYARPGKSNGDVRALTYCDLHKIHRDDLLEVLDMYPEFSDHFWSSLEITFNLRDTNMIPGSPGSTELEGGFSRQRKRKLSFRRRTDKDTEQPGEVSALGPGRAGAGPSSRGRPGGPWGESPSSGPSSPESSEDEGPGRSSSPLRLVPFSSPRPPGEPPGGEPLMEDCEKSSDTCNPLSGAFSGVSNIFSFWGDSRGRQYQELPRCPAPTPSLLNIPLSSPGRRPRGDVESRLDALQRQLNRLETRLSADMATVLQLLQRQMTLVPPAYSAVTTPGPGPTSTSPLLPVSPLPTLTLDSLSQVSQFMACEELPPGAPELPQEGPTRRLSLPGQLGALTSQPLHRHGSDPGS

Row | Structure (SMILES) | hERG current change (%, negative = inhibition) at 10uM [%]
1 | CCCCn1c(N)c(N(CCOC)C(=O)CCc2ccc(OC)cc2)c(=O)[nH]c1=O | 12.4
2 | Cc1ccc(C(=O)CN2C(=O)C(C)Oc3ccccc32)cc1 (stereo not shown) | -1.24
3 | O=C(NCCS(=O)(=O)NCc1ccccc1Cl)c1ccccc1 | -14.5
4 | O=C(CN1CCOCC1)Nc1nc2cc([N+](=O)[O-])ccc2s1 | -32.3
5 | COc1cc(NS(=O)(=O)c2ccc(NC(=O)NC3CCCCC3)cc2)nc(OC)n1 | 6.27
6 | C=CCNC(=O)COC(=O)c1ccc(Cl)c(S(N)(=O)=O)c1 | 9.88
7 | CN(CC(=O)NCc1ccccn1)S(=O)(=O)c1ccccc1 | 5.77
8 | CC(OC(=O)COc1ccccc1[N+](=O)[O-])C(=O)Nc1ccc(N2CCOCC2)cc1 (stereo not shown) | -3.06
9 | COc1cc(CNC2CCCC2)cc(Cl)c1OCc1ccc(F)cc1.Cl | -37.8
10 | Cc1nc(NCc2ccco2)[nH]c(=O)c1CCC(C)C | -1.09
11 | CN(Cc1ccccc1)C(=O)CN1C(=O)NC2(CCCC2)C1=O | -12.6
12 | CCOC(=O)C1=NN(c2ccccc2C)C2=NC(C)=C(C(=O)OC)C(c3cccs3)N12 (stereo not shown) | -16.3
13 | CCCC(c1nnnn1Cc1ccccc1)N1CCC(C(N)=O)CC1.Cl (stereo not shown) | -3.44
14 | COc1cccc(C2NC(=S)NC(C)=C2C(=O)c2ccccc2)c1OC (stereo not shown) | 7.62
15 | CCOCCCN(Cc1ccco1)S(=O)(=O)c1csc(C(N)=O)c1 | 20.1
16 | O=C(NCc1ccco1)/C(=C/c1cccc(C(F)(F)F)c1)c1nc2ccccc2[nH]1 | 15.4
17 | O=S(=O)(NCC(c1cccnc1)N1CCN(c2ccccc2F)CC1)c1cccs1 (stereo not shown) | -60.5
18 | c1ccc2nc(OCCN3CC3)ccc2c1 | 0.471
19 | Cc1ccc(OS(=O)(=O)c2ccc(-c3csc(C)n3)s2)c(C)c1 | 15.8
20 | O=CN1CCN(C(=O)c2ccccc2F)CC1 | 17.3
21 | O=C(NNS(=O)(=O)c1ccc(F)c(Cl)c1)c1cccc(S(=O)(=O)N2CCOCC2)c1 | 36.7
22 | O=C(NCc1ccccc1)c1ccc2c(=O)n(CC3CCCO3)c(=S)[nH]c2c1 (stereo not shown) | -2.39

Row | Structure (SMILES) | hERG current change (%, negative = inhibition) at 10uM [%]
23 | COc1cc(OC)c(S(=O)(=O)N2CCCCC2)cc1S(=O)(=O)N1CCCCC1 | -17.6
24 | COc1cc(Cn2c(N)c(C(=O)NCc3ccco3)c3nc4ccccc4nc32)cc(OC)c1OC | -11.8
25 | COCC(=O)Nc1ccc(Br)c(C)c1 | 1.85
26 | COc1cc(NC(=O)CN2C(=O)NC(CC(C)C)C2=O)cc(OC)c1OC (stereo not shown) | 7.49
27 | O=C(C1CC1c1ccccc1)N1CCOCC1 (stereo not shown) | 28.3
28 | CCOc1cc(/C=N/N2CCN(Cc3ccccc3)CC2)ccc1O | -8.42
29 | COCCN=C1N[C@@H](c2ccccc2)C(C(=O)OC)=C(C)N1Cc1ccccc1 | -16.8
30 | Nc1nnnn1CC(=O)OCc1cccc(Br)c1 | -13.8
31 | CN1CCN(c2nc(-c3ccccc3O)nc3ccccc23)CC1 | 9.47
32 | Cc1ccc(S(=O)(=O)N(C)C)cc1NC(=O)CSc1nnc(C2CC2)n1C1CC1 | -17
33 | Cc1ccc(NC(=O)COC(=O)CCC(=O)c2cccs2)cc1 | -6.94
34 | O=C(c1ccc(Br)cc1)c1cn[nH]c1-c1ccccc1O | 5.85
35 | CCOc1ccc(NC(=O)N(c2ccccc2)c2ccccc2)cc1 | 7.25
36 | C(=N\n1cnnc1)/c1ccccc1OCCOc1ccccc1 | -37.5
37 | CCOc1ccc(N2CC(C(=O)N3CCCCCC3)CC2=O)cc1 (stereo not shown) | -7.34
38 | COc1c2ccc(C(=O)NCc3cc(C(F)(F)F)cc(C(F)(F)F)c3)cc2nn1C | 14.7
39 | COc1ccc(CNS(=O)(=O)c2ccc(-c3ccc(=O)[nH]n3)o2)cc1 | 9.29
40 | CC(=O)Nc1nc2c(C)c(Cl)ccc2s1 | 14
41 | CCn1nc(-c2ccccc2)c2nc3ccccc3nc21 | 6.47
42 | COC(=O)c1ccc(CN2CCC(n3nccc3NC(=O)C3CCCC3)CC2)cc1 | -67.7
43 | COc1ccc(CCNC(=O)COc2cc(=O)n(C)c3ccccc23)cc1OC | 5.75
44 | O=C(c1ccc(Cl)cc1)C1CCCN(C(=O)/C=C/c2ccccn2)C1 (stereo not shown) | -51.9

Row | Structure (SMILES) | hERG current change (%, negative = inhibition) at 10uM [%]
45 | CCC(C)C(=O)Nc1nnc(SCC(=O)N2C(C)CCCC2C)s1 (stereo not shown) | -1.37
46 | COC(=O)c1cccc(NC(=O)c2cnn(C)c2)c1 | 15.9
47 | Nc1ccc(C(=O)NCCCCCCNC(=O)c2ccc(N)cc2)cc1 | 12.3
48 | Cc1ccc(N(C(=O)c2ccc(S(=O)(=O)N3CCCC3)cc2)C2C=CS(=O)(=O)C2)cc1 (stereo not shown) | -32.9
49 | C=CCn1c(COc2ccc(OC)cc2)nc2ccccc21 | -79.8
50 | COc1ccc(/C=C(\C#N)C(=O)Nc2cc(S(=O)(=O)N3CCCCC3)ccc2N2CCCCC2)cc1 | 6.92
51 | O=C(COC(=O)CNC(=O)c1ccc(-c2ccccc2)cc1)NCc1ccco1 | 2.07
52 | CCCCOC(=O)NC1(C)CCS(=O)(=O)C1 (stereo not shown) | 27.1
53 | Cc1ccc(C(=O)CN2C(=O)c3ccccc3S2(=O)=O)cc1 | -15.2
54 | Cc1ccc(S(=O)(=O)C2C(=O)N(C)C3(C)CC2c2ccccc2O3)cc1C (stereo not shown) | -1.49
55 | COc1ccccc1CCNC(=O)C1(C)CC1(Cl)Cl (stereo not shown) | 13.3
56 | O=C(c1cccc(-c2ccco2)c1)N1CCCC(N2CCN(c3ccc(F)cc3)CC2)C1 (stereo not shown) | -78.5
57 | COc1cc(CN2CCC(C(=O)N3CCN(c4ccccc4F)CC3)CC2)cc(OC)c1OC.O=C(O)C(=O)O | -22.6
58 | CCN(CC)S(=O)(=O)c1ccc(NC(=O)CO/N=C(\N)c2ccccc2)cc1 | -16.6
59 | Cc1csc(NC(=O)CSc2ccccc2F)n1 | 5.05
60 | O=S(=O)(c1ccc(F)cc1)N1CCN(C(=S)NC2CC2)CC1 | -11
61 | CC(C)(C)C(=O)O/N=C(\N)c1c(Cl)cccc1Cl | 6.09
62 | O=C(CSc1nnc(Cc2cc(=O)[nH]c(=O)[nH]2)n1-c1ccccc1)N1CCCCC1 | 20.7
63 | Cn1c(=O)c2c(ncn2CCC(=O)N/N=C/c2ccccc2)n(C)c1=O | -6.1
64 | O=C(OCc1ccc([N+](=O)[O-])cc1)c1cc([N+](=O)[O-])ccc1N1CCOCC1 | -76.1
65 | C=CCNC(=O)N1CCc2[nH]c3ccc(F)cc3c2C1 | 6.56
66 | Cc1ccc(S(=O)(=O)N(C#N)c2nc(C)cc(C)n2)cc1 | 5

Row | Structure (SMILES) | hERG current change (%, negative = inhibition) at 10uM [%]
67 | CCOC(=O)CC1CCCCN1C(=O)c1cc(COc2cccc3cnccc23)on1 (stereo not shown) | -12.1
68 | C[C@@H]1C(=O)O[C@H]2CC34[C@H]5C[C@@H](C(C)(C)C)[C@]36[C@@H](OC(=O)[C@@H]6O)O[C@@]4(C(=O)O5)[C@]21O (stereo partly shown) | 13.4
69 | Fc1ccccc1-c1nc2ccccc2[nH]1 | 47.2
70 | Cc1cc(C)n2cc(CSc3nnc(N)s3)nc2n1 | 8
71 | O=c1cc(N2CCC3(CC2)OCCO3)[nH]c(=O)n1C1CCCCC1 | 8.9
72 | O=C(O)c1ccc(Cl)c(S(=O)(=O)N(Cc2ccccc2)c2ccc(F)cc2)c1 | 13.9
73 | Cc1ccc(OCC(=O)NNC(=O)C2CCN(c3nccc(C)n3)CC2)cc1 | -12.3
74 | O=C(O)c1cc2nccc(-c3ccc(F)cc3)n2n1 | 25.4
75 | COc1ccc2sc(N3C(=O)C4CC=C(C)CC4C3=O)nc2c1 (stereo not shown) | -3.56
76 | CCC(Oc1ccccc1)C(=O)Nc1nc2ccccc2[nH]1 (stereo not shown) | -8.73
77 | COc1cc(C2c3c(-c4ccccc4O)n[nH]c3C(=O)N2Cc2ccco2)cc(OC)c1OC (stereo not shown) | -1.67
78 | COCCCn1c2nc3ccccc3nc2c2c(=O)n(-c3ccccc3OC)c(C)nc21 | 10.5
79 | COC(=O)c1ccc(CN(C(=O)N2CCN(C)CC2)S(=O)(=O)c2ccc(C)cc2)cc1 | 15.1
80 | COc1cc(CNn2nnnc2N)cc(Br)c1OCc1c(Cl)cccc1Cl | 14.3
81 | Nc1ccn(CC(=O)N2CCN(c3ccccn3)CC2)c(=O)n1 | 17.2
82 | Cc1cc(NC(=O)c2cccnc2)ccc1NC(=O)c1cc2ccccc2o1 | 11.1
83 | CCOc1cc(C(N)=O)cc(Br)c1OC | 9.28
84 | CCOC(=O)c1ccc(N2C(=O)C3CC=C(C)CC3C2=O)cc1 (stereo not shown) | 7.74
85 | COc1cc2c3c(c1)c(C1=NC(=S)NC1=O)c(O)n3C(C)(C)C=C2C | 10.4
86 | O=C(CNC(=O)c1ccc(Br)cc1)N/N=C/c1ccc[nH]1 | 20.8
87 | COc1ccc2c(c1)cc(C)c1nnc(SCC(=O)N3CCN(C(=O)c4ccco4)CC3)n12 | -40.1
88 | O=c1[nH]c(CCl)nc2cc(-c3ccc(F)cc3)sc12 | 15.2
